The other results are listed elsewhere or left out. At the low end of the ranking, values are background and their order means little.
molecular target: T1, GST-Rok (full length) (UniProt O34857); assay: protein binding microarray; settings: Rok is a gene silencer of Bacillus subtilis; high values mean tight binding; most listed sequences are background and not binding sites; double strand, one strand shown;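 also: rank score from −0.5 (least bound) to 0.5 (best bound)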
T1 sequence: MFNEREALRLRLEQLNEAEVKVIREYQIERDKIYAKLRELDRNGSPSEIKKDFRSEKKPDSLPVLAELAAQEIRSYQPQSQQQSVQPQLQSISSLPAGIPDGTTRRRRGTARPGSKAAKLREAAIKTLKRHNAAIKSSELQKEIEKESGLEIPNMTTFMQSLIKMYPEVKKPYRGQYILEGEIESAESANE

Row | Sequence | binding signal
1 | CCAAGGCC | -0.305 E-score
2 | CCTCCGCG | -0.0896 E-score
3 | AGTACTAA | 0.357 E-score
4 | ACGGTGCC | -0.36 E-score
5 | CATTCCTC | -0.0046 E-score
6 | AACTCATT | 0.071 E-score
7 | AACAATAG | 0.301 E-score
8 | AATCGTTC | -0.0165 E-score
9 | AACTTCAG | 0.116 E-score
10 | ATTCTAAG | 0.21 E-score
11 | AAACGTTT | 0.123 E-score
12 | GATCTCAA | -0.162 E-score
13 | GCTCATCC | -0.252 E-score
14 | CCTCTTCA | -0.248 E-score
15 | CTAGATGA | 0.0637 E-score
16 | CACCGCCC | -0.262 E-score
17 | CCCTCCGG | -0.419 E-score
18 | ATCCTGCA | -0.0452 E-score
19 | CAGACGCC | -0.308 E-score
20 | GTCACCTA | -0.122 E-score
21 | AGCGGTCA | -0.0745 E-score
22 | CTATATGA | 0.197 E-score
23 | AGTAACTG | 0.193 E-score
24 | TCCAATAA | -0.124 E-score
25 | ACTAGTTC | 0.329 E-score

Row | Sequence | binding signal
26 | AGGGATTC | -0.163 E-score
27 | CAATCTAC | 0.365 E-score
28 | ACGGGTCC | -0.267 E-score
29 | CCTTGCCC | -0.325 E-score
30 | AATCCGAT | 0.0172 E-score
31 | TGCCTCCA | -0.144 E-score
32 | ATTGACCG | 0.161 E-score
33 | ATTAGAAG | 0.186 E-score
34 | AAAAACGT | 0.0725 E-score
35 | AACGGGGG | -0.379 E-score
36 | GTCCGCAA | -0.0703 E-score
37 | AACGGTGA | 0.141 E-score
38 | ATCCTGAG | -0.0601 E-score
39 | CAATCCGC | -0.103 E-score
40 | CACCCCAC | -0.265 E-score
41 | GGTCAAGA | -0.141 E-score
42 | GGGTAACC | -0.186 E-score
43 | GGCTGGTA | 0.217 E-score
44 | CAAGGCGC | -0.272 E-score
45 | TAAGTTCA | 0.0904 E-score
46 | GGTAGACC | -0.0745 E-score
47 | GCTCAGAC | -0.192 E-score
48 | CCATAGAC | -0.134 E-score
49 | CCGTGGCG | -0.194 E-score
50 | AATACATT | 0.252 E-score

Row | Sequence | binding signal
51 | TACTTTGA | 0.0956 E-score
52 | AGTAAGGC | -0.059 E-score
53 | GGCATCGA | 0.0234 E-score
54 | TCATCACA | 0.0709 E-score
55 | AGTTAGTA | 0.319 E-score
56 | GTCTGCGA | -0.167 E-score
57 | GCCCACAA | -0.109 E-score
58 | GACGATAC | 0.0632 E-score
59 | CTTAACGA | -0.152 E-score
60 | ATGATTCG | -0.144 E-score
61 | CACGTGTA | 0.175 E-score
62 | CTAAGCCA | 0.0287 E-score
63 | AGCTTAAT | 0.023 E-score
64 | CTTATATA | 0.253 E-score
65 | AGCATTAT | 0.255 E-score
66 | ACACGCCG | -0.287 E-score
67 | TAGAGCCA | -0.123 E-score
68 | AAGAATAA | 0.183 E-score
69 | ATGGACTA | 0.0575 E-score
70 | CGTTTGAC | -0.0575 E-score
71 | AATACCTG | 0.141 E-score
72 | CGTTATCA | 0.2 E-score
73 | GGTTTATA | 0.0906 E-score
74 | GCCCGTCC | -0.248 E-score
75 | ACGATCAT | 0.0955 E-score

Row | Sequence | binding signal
76 | CGGACATA | 0.0669 E-score
77 | ACCCATCT | 0.119 E-score
78 | TCACGTGA | -0.0446 E-score
79 | ATCGGTAC | 0.22 E-score
80 | GCGCTGCC | -0.359 E-score
81 | CCCCCGAC | -0.445 E-score
82 | CTTTACCA | 0.136 E-score
83 | ATAGGGGG | -0.22 E-score
84 | GGGGTGAC | -0.307 E-score
85 | ATAGCACC | -0.0446 E-score
86 | AACAACGT | 0.182 E-score
87 | CTGATGGA | -0.079 E-score
88 | CGCGTGAA | -0.038 E-score
89 | TAACAGGA | 0.0364 E-score
90 | AACTACTC | 0.381 E-score
91 | ATCGCCAT | 0.0173 E-score
92 | AATCTACA | 0.326 E-score
93 | ACTTATAT | 0.332 E-score
94 | CAGTGTCG | -0.122 E-score
95 | GCGGGTCC | -0.0666 E-score
96 | ATTGAGAC | -0.0929 E-score
97 | AGTTTTTC | 0.0143 E-score
98 | CTTATCTA | 0.229 E-score
99 | ACTACTTG | 0.192 E-score
100 | CCTTGAAC | -0.296 E-score

Row | Sequence | binding signal
101 | GGAGCTGA | -0.309 E-score
102 | AGCAAACC | 0.0585 E-score
103 | ACAGGGTC | -0.24 E-score
104 | GCGGCTGA | -0.213 E-score
105 | GACTATCC | -0.0656 E-score
106 | CGGGGGCC | -0.422 E-score
107 | ACGTGTTC | -0.18 E-score
108 | CTTTCATC | -0.031 E-score
109 | GACCCGTA | -0.256 E-score
110 | ATTGTGCA | 0.108 E-score
111 | CATTAGCC | -0.265 E-score
112 | CCTTCACG | -0.126 E-score
113 | CCAATCAG | 0.0268 E-score
114 | AGGCCGAA | -0.136 E-score
115 | GCGTTAAC | 0.0258 E-score
116 | CGAGGCCG | -0.392 E-score
117 | GCACGTGC | -0.141 E-score
118 | CGGTCTGC | -0.131 E-score
119 | CATTGGTA | 0.223 E-score
120 | CCTCGTCG | -0.205 E-score
121 | ATGGATTC | 0.0719 E-score
122 | GGCTTACC | -0.233 E-score
123 | ACCTTCAC | -0.0752 E-score
124 | ATATATTC | 0.34 E-score
125 | CAGATTGC | -0.179 E-score

Row | Sequence | binding signal
126 | ACCTGAAC | -0.0846 E-score
127 | GTCAGAGA | -0.298 E-score
128 | ACCGCCAA | -0.241 E-score
129 | TGTCCACA | 0.00731 E-score
130 | CCTATGAA | -0.0665 E-score
131 | GTGGACTA | 0.133 E-score
132 | GCAACTAC | 0.308 E-score
133 | ACGCTAGA | 0.14 E-score
134 | TTACCGAA | 0.237 E-score
135 | TGATGACA | 0.0582 E-score
136 | GATTTAGA | -0.0821 E-score
137 | TCCTACAA | 0.0302 E-score
138 | CTACTAAC | 0.324 E-score
139 | CTACAATA | 0.291 E-score
140 | TAAAGGGA | -0.0821 E-score
141 | GGTTTCAA | -0.0891 E-score
142 | CCCTCGAC | -0.306 E-score
143 | AATAACTC | 0.0992 E-score
144 | ACTCGTAC | 0.0428 E-score
145 | CCCCGCAG | -0.342 E-score
146 | AACCAGTT | -0.0802 E-score
147 | CAGGTAGA | 0.221 E-score
148 | ATTGTACA | 0.369 E-score
149 | AGTGGTTA | 0.134 E-score
150 | GGCCATAC | -0.0505 E-score

Row | Sequence | binding signal
151 | AGATCTCG | -0.134 E-score
152 | CGATAACA | 0.116 E-score
153 | AGAGGCGG | -0.231 E-score
154 | GCGAATTA | 0.266 E-score
155 | CAGGTGTC | -0.0418 E-score
156 | CTCGCGTA | 0.0298 E-score
157 | ACCAGATA | 0.209 E-score
158 | ATGGTACC | 0.231 E-score
159 | CGAGGTTC | -0.173 E-score
160 | ATAGAGGC | -0.0438 E-score
161 | CAGTATTA | 0.243 E-score
162 | ATAATTCG | 0.302 E-score
163 | CAGTCAGC | 0.00195 E-score
164 | CCCGCAAG | -0.316 E-score
165 | ATAACCGG | -0.0829 E-score
166 | CATTTGAC | 0.0433 E-score
167 | GCAGCGCA | 0.00939 E-score
168 | ATTATCGC | 0.0259 E-score
169 | CGCACTCC | -0.295 E-score
170 | ACGGCGGA | -0.404 E-score
171 | CGGAGCCA | -0.128 E-score
172 | GACAGGCA | -0.157 E-score
